In the RNAGym collection of RNA variant scans (doi:10.1093/nar/gkz1192):
Read counts are not given, so values of variants with three or more changes are uncertain.

B1: CPEB3 Ribozyme (parent)
chain: UAACAGGGGGCCACAGCAGAAGCGUUCACGUCGCAGCCCCUGUCAGAUUCUGGUGAAUCUGCGAAUUCUGCUGUAUAUCUC

Variants of: B1
Assay: self-cleavage, relative activity (ratio to wild type); higher = more cleavage; in vitro, sequencing
Summary of the method: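 For each CPEB3 ribozyme variant, relative activity is its cleaved/total read fraction divided by the unmutated ribozyme's. Barcoded error-prone PCR libraries were transcribed by T7 RNA polymerase (5 hours, 37°C) and held in DNase I for 15 min before an EDTA stop, with cleavage occurring throughout. Template-switching reverse transcription and Illumina sequencing were used to read the RNAs. A 5-read minimum applied, and results are the mean of three batches.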

Variant | self-cleavage
A13C A15U U26A A45U | 0.28
A13G A15U A35G U72C | 0.99
A13C A15G U41C U43C U60A G63U | 0.1
A13C U43A U54C C81U | 1.24
C12U U26C A28G A35U | 0.18
A13C U49C U67C | 0.26
A13C C14U U25C U31C A47U U60A | 0.15
A13C U66C U72C | 0.22
A13C A20G U54C U66C U69C | 0.18
C12U U25A A45U U58C | 0.08
C12U C32A C40A U43C A57G | 0.31
C12U U25A U26C A56C A65G U72A | 0.05
A13C A18G A21G U43C | 0.16
C12U U26C A45G U51C U72A | 0.21
A13G A15U G22A U31A C38U U41G A75G | 0.04
C12U C17U A28U A45C | 0.15
A13C C14A A15U A28U U72C | 0.25
A13C U26C U51C U67C U80C | 0.15
C12U G33C A45G A56U U72A U76C | 0.04
A13G A15G A35U U41C A45U | 0.38
A13C A28U A57G U60C A65G U72G A75G | 0.08
C12U U41A A64G U67C | 0.1
C12U A35U U49C U69C | 0.12
A13C A15G A35G | 0.63

Variant | self-cleavage
C12U U25C U31A U54C A57G | 0.23
A13C A21U U48C U60C | 0.14
A13C A28G U60C C68A | 0.17
A13G A15U U43C U72A | 0.28
A13C U43C U54A | 0.87
C12U G24A U58C U69G U72A | 0.05
C12U A45G G63C | 1.16
A13G A15G U72C U78C | 0.99
C12U C14A U67C U80C | 0.63
A13G A15G U25A U60C U72A | 0.08
A13G A15U A35G U49A U69C U74C | 0.07
C12U U51A U74C | 1.3
A13C G24A A47G U54C A65C | 0.06
A13C U54A U66C | 0.37
A13G A15G A57U | 0.17
A13G A15U U54C U69C C79U | 0.07
A13C U41A A75G | 0.11
C12U U31C U72C | 1.14
A13C G24A U26C G55U U76C | 0.15
A13C U54A U76C | 0.92
A13C A35G U60C | 0.87
A13C U49A A64G | 0.14
C12U U31C U58A A64G | 0.29
C12U A35G U48A U60G | 0.2

Variant | self-cleavage
A13C A18U C40A U43C A65G | 0.06
C12U C17G A56U A64G | 0.07
A13G A15C U54C A65G | 0.15
A13C A18U G36A U41A G53A U60A U78A | 0.07
C12U C17U U54A | 1.08
C12U G33A A35G A47U A65G | 0.08
A13C C39U A64U | 0.07
C12U U48C C50U | 0.7
A13C U25C U26C | 0.26
C12U G16C G24A U48A G52C | 0.05
A13C C34A A35G U43C A77G | 0.21
C12U U41A A47G C68G G73U C79A | 0.06
C12U U25C U26A C62U U72C | 0.07
C12U U51C A56U | 0.81
C12U U43C U54A A77U | 1.06
C12U U54C U58C A64G U72C U78C | 0.63
C12U U31C A45U A57G | 0.27
C12U G24C U25C U26C U60A A65C U66C | 0.05
C12U A35G A65U | 0.37
A13C A35G U41C A65G U72C | 1.06
A13C C23U A35C | 0.17
C12U U26C C50U A56G | 0.27
A13C C29U U41A A45U A75G | 0.14
A13G A15U A56U U74C | 0.2

Variant | self-cleavage
A13C C32U C38U A45G U80A | 0.03
C12U C23A U54A A77U | 0.28
A13G A15G G24A U25C U41C | 0.43
A13C C17U U25C U26C A28G U80C | 0.1
C12U U41C U78C | 1.18
A13C U31C C32U U41A U49C | 0.04
C12U U26C U41A A45G A56G U60C U72A | 0.12
A13G A15U U41A U80A | 0.13
A13C U25C U67C | 0.18
A13C U25C U67G | 0.2
A13G A15G U60A | 0.09
A13C A28U C50U | 0.45
A13G A15C A47G U51C U67C U72C U78C | 0.33
A13G A15G A45U A47G U60A | 0.16
C12U C17U U26A A45G | 0.34
A13C U25C U76G | 0.63
A13G A15U A20G U25C G46C A64U | 0.06
C12U A28U U31C C68A | 0.14
A13C G33A C38U U51C A56C A64G | 0.07
C12U A28G C34U C40A A45U A56U | 0.03
A13G A15G C23U | 0.31
C12U A35G U51A A64U U74A | 0.87
A13G A15U U26C G70A U76C | 0.2
C12U G30A U43C A77G | 0.09

Variant | self-cleavage
A13C A20U U31A C39G U74A | 0.23
A13C G24A A47G U76A U78C | 0.09
C12U G24A U49C U69C | 0.04
A13C U25A A64U U76C | 0.07
C12U C27G U43A A77U | 0.28
C12U G53A U66C | 0.86
C12U U41A U54C A64G C79U | 0.25
C12U G30C U69C U80A | 0.05
C12U G16C U25A U41A U49C | 0.26
A13C G24A U72C | 0.21
C12U U43C U76C | 0.89
A13G A15G A45G U69C | 0.11
C12U U25A A45U U49C A65G | 0.13
A13C C37U U80C | 0.79
C12U G24U G33A | 0.23
C12U C50A A56U | 1.3
C12U G61A U76C | 1.09
A13G A15U C40A U43A | 0.13
A13C U25A U60C | 0.18
A13C A28U U43C A75G | 0.24
C12U U25A U26C U66C U76C | 0.16
A13C A56G U78C | 0.71
A13C U26A A64G U72A | 0.13
A13C C39U U51A | 0.8

Variant | self-cleavage
A13C A18G A47G | 0.41
C12U A28G G63C | 0.3
C12U U43G U72G A75G A77G | 0.09
A13G A15G U60A U66C U80C C81A | 0.14
C12U U31C U51A U72C | 1.22
C12U U66C U72A U78A | 0.98
A13C A15G C32A U54C | 0.19
A13C A15U G30A C37A U43C A56U A64U | 0.07
A13G A15G U26C U69G | 0.17
A13G A15U U25C U26G U72C | 0.11
C12U A45G U66C | 0.66
C12U U43C A45G U49C | 0.18
A13C U26C G42A | 0.32
A13C U31A A45G | 0.25
A13C U25C A45U | 0.18
A13G A15U A65G U67C A77G U80G | 0.07
A13C C17U U43C U54A U60A | 0.15
A13G A15G C29U U74C | 0.24
C12U U41A U60C | 0.25
A13G A15G A28G C32U U48C | 0.12
C12U U26C C39G U58C A64G U74C A75G | 0.04
A13G A15C C71A A75G | 0.12
A13G A15G C40U A57G U78C U80C | 0.29
C12U U31C A35U G63U U72C | 0.89

Variant | self-cleavage
C12U U60C U72C | 0.6
A13G A15U C40U C44A A75U | 0.07
A13G A15G U51A U60C | 0.16
A13C C14G G61A U72A | 0.12
A13C A64G U72C A77U | 0.82
C12U U25A A28G A45G | 0.07
C12U G30A U31C | 0.09
C12U C23U U26A A35U U41C U58A | 0.04
A13C A15G A65G | 0.67
C12U U67A U72G | 0.74
C12U U43C A45U A47G U76C | 0.14
A13G A15U A35G | 0.25
C12U U26C U41C U66C | 0.38
A13C C34U U41C U48G | 0.09
C12U U25G U78A | 0.85
A13C A28G C29G C44A U48C A56C A57G | 0.14
A13C U60C U66C | 0.21
A13C A57U C59U A64G U72C A77U U78C | 0.16
A13G A15U U51G A56C | 0.23
C12U U31A A35G A47G U76C | 0.95
A13G A15G U26C U60A U78A | 0.43
A13C A35U U54A U60A | 0.2
C12U U49C U60C | 0.11
